Values joined by “and” are separate entries in the source; they are usually repeats but may differ in a detail not shown here. Equal entries are not always repeated. Where two headings read alike, the source gives them in different places.
Experiments:
[1] = system: CCRF-CEM leukemia cells
[2] = system: HL-60 (TB) leukemia cells; conditions: 0.1 µM
[3] = system: K-562 leukemia cells
[4] = system: COLO 205 colon cancer cells; conditions: 0.01 µM
[5] = system: HCC-2998 colon cancer cells
[6] = system: HCT-15 colon cancer cells
[7] = system: CCRF-CEM leukemia cells; test: cells; conditions: Homo sapiens
[8] = system: MALME-3M melanoma cells
[9] = system: DU-145 prostate cancer cells
[10] = system: MCF7 breast cancer cells
[11] = system: SR leukemia cells; test: cells
[12] = system: NCI-H226 non-small cell lung cancer cells; test: cells; conditions: Homo sapiens
[13] = system: NCI-H522 non-small cell lung cancer cells; test: cells; conditions: Homo sapiens
[14] = system: COLO 205 colon cancer cells; test: cells; conditions: Homo sapiens, COLO 205, read-out: Percent Growth
[15] = system: HT29 colon cancer cells; test: cells; conditions: Homo sapiens
[16] = system: KM12 colon cancer cells; test: cells; conditions: Homo sapiens
[17] = system: M14 melanoma cells; test: cells; conditions: Homo sapiens
[18] = system: SK-MEL-2 melanoma cells; test: cells; conditions: Homo sapiens
[19] = system: SK-MEL-28 melanoma cells; test: cells; conditions: Homo sapiens
[20] = system: MCF7 breast cancer cells; test: cells; conditions: Homo sapiens
[21] = system: MDA-MB-435 breast cancer cells; test: cells; conditions: Homo sapiens
[22] = system: MDA-N breast cancer cells; test: cells; conditions: Homo sapiens
[23] = system: EKVX non-small cell lung cancer cells
[24] = system: NCI-H226 non-small cell lung cancer cells
[25] = system: HT29 colon cancer cells; conditions: log10 conc -5.0; 10 µM
[26] = system: LOX IMVI melanoma cells; conditions: log10 conc -8.0; 0.01 µM
[27] = read-out: Percent Growth, log10 conc -4.0
[28] = read-out: Percent Growth, log10 conc -5.0
[29] = read-out: Percent Growth, log10 conc -9.0
[30] = read-out: Percent Growth, log10 conc -10.0

## COc1cc2c(c(OC)c1OC)-c1ccc(C(C)=O)cc1C(NC(C)=O)CC2 (stereo not shown)
[1]; log10 conc -6.0, 1 µM
  Percent Growth: -31%
[2]
  Percent Growth: 7%
[3]; log10 conc -6.0, 1 µM
  Percent Growth: -5% and 4%
[3]; log10 conc -7.0, 0.1 µM
  Percent Growth: 4%
[3]; log10 conc -8.0, 0.01 µM
  Percent Growth: 6%
[4]
  Percent Growth: 55%
[5]; log10 conc -6.0, 1 µM
  Percent Growth: -4%
[5]; log10 conc -7.0, 0.1 µM
  Percent Growth: 26%
[5]; log10 conc -8.0, 0.01 µM
  Percent Growth: 82%
[6]; log10 conc -6.0, 1 µM
  Percent Growth: 5%
[6]; log10 conc -8.0, 0.01 µM
  Percent Growth: 50%
[7]; [27]
  activity at 100 µM: -15%
[7]; [28]
  activity at 10 µM: 3%
[7]; [29]
  activity at 0.001 µM: -15%
[7]; [30]
  activity at 0.0001 µM: 63%
[8]; log10 conc -7.0, 0.1 µM
  Percent Growth: 37%
[8]; log10 conc -8.0, 0.01 µM
  Percent Growth: 40%
[9]; log10 conc -8.0
  Percent Growth: 9%
[10]; log10 conc -6.0, 1 µM
  Percent Growth: 10%
[10]; log10 conc -7.0, 0.1 µM
  Percent Growth: 10%
[10]; log10 conc -8.0, 0.01 µM
  Percent Growth: 10%
[11]; [27]
  activity at 100 µM: 11%
[11]; [28]
  activity at 10 µM: 19%
[11]; [29]
  activity at 0.001 µM: -39%
[11]; [30]
  activity at 0.0001 µM: 28%
[12]; NCI-H226, read-out: Percent Growth, log10 conc -4.0
  activity at 100 µM: 16%
[12]; NCI-H226, read-out: Percent Growth, log10 conc -5.0
  activity at 10 µM: 15%
[12]; NCI-H226, read-out: Percent Growth, log10 conc -9.0
  activity at 0.001 µM: 47%
[12]; NCI-H226, read-out: Percent Growth, log10 conc -10.0
  activity at 0.0001 µM: 103%
[13]; NCI-H522, read-out: Percent Growth, log10 conc -4.0
  activity at 100 µM: -5%
[13]; NCI-H522, read-out: Percent Growth, log10 conc -5.0
  activity at 10 µM: -8%
[13]; NCI-H522, read-out: Percent Growth, log10 conc -6.0
  activity at 1 µM: 2%
[13]; NCI-H522, read-out: Percent Growth, log10 conc -9.0
  activity at 0.001 µM: 22%
[13]; NCI-H522, read-out: Percent Growth, log10 conc -10.0
  activity at 0.0001 µM: 96%
[14]
  activity at 10 µM: 0%
  activity at 100 µM: 3%
[15]; HT-29, read-out: Percent Growth, log10 conc -4.0
  activity at 100 µM: -45%
[15]; HT-29, read-out: Percent Growth, log10 conc -5.0
  activity at 10 µM: -44%
[15]; HT-29, read-out: Percent Growth, log10 conc -7.0
  activity at 0.1 µM: -44%
[15]; HT-29, read-out: Percent Growth, log10 conc -8.0
  activity at 0.01 µM: -35%
[15]; HT-29, read-out: Percent Growth, log10 conc -9.0
  activity at 0.001 µM: -32%
[15]; HT-29, read-out: Percent Growth, log10 conc -10.0
  activity at 0.0001 µM: 109%
[16]; KM12, read-out: Percent Growth, log10 conc -4.0
  activity at 100 µM: -5%
[16]; KM12, read-out: Percent Growth, log10 conc -5.0
  activity at 10 µM: -20%
[16]; KM12, read-out: Percent Growth, log10 conc -9.0
  activity at 0.001 µM: 24%
[16]; KM12, read-out: Percent Growth, log10 conc -10.0
  activity at 0.0001 µM: 70%
[17]; M14, read-out: Percent Growth, log10 conc -4.0
  activity at 100 µM: 12%
[17]; M14, read-out: Percent Growth, log10 conc -5.0
  activity at 10 µM: 24%
[17]; M14, read-out: Percent Growth, log10 conc -8.0
  activity at 0.01 µM: 12%
[17]; M14, read-out: Percent Growth, log10 conc -9.0
  activity at 0.001 µM: 7%
[17]; M14, read-out: Percent Growth, log10 conc -10.0
  activity at 0.0001 µM: 55%
[18]; SK-MEL-2, read-out: Percent Growth, log10 conc -4.0
  activity at 100 µM: 27%
[18]; SK-MEL-2, read-out: Percent Growth, log10 conc -5.0
  activity at 10 µM: 26%
[18]; SK-MEL-2, read-out: Percent Growth, log10 conc -6.0
  activity at 1 µM: 33%
[18]; SK-MEL-2, read-out: Percent Growth, log10 conc -7.0
  activity at 0.1 µM: 39%
[18]; SK-MEL-2, read-out: Percent Growth, log10 conc -8.0
  activity at 0.01 µM: 49%
[18]; SK-MEL-2, read-out: Percent Growth, log10 conc -9.0
  activity at 0.001 µM: 42%
[18]; SK-MEL-2, read-out: Percent Growth, log10 conc -10.0
  activity at 0.0001 µM: 92%
[19]; SK-MEL-28, read-out: Percent Growth, log10 conc -4.0
  activity at 100 µM: 50%
[19]; SK-MEL-28, read-out: Percent Growth, log10 conc -5.0
  activity at 10 µM: 46%
[19]; SK-MEL-28, read-out: Percent Growth, log10 conc -6.0
  activity at 1 µM: 57%
[19]; SK-MEL-28, read-out: Percent Growth, log10 conc -7.0
  activity at 0.1 µM: 53%
[19]; SK-MEL-28, read-out: Percent Growth, log10 conc -8.0
  activity at 0.01 µM: 52%
[19]; SK-MEL-28, read-out: Percent Growth, log10 conc -9.0
  activity at 0.001 µM: 39%
[19]; SK-MEL-28, read-out: Percent Growth, log10 conc -10.0
  activity at 0.0001 µM: 39%
[20]; MCF7, read-out: Percent Growth, log10 conc -4.0
  activity at 100 µM: 15%
[20]; MCF7, read-out: Percent Growth, log10 conc -5.0
  activity at 10 µM: 9%
[20]; MCF7, read-out: Percent Growth, log10 conc -6.0
  activity at 1 µM: 11%
[20]; MCF7, read-out: Percent Growth, log10 conc -7.0
  activity at 0.1 µM: 8%
[20]; MCF7, read-out: Percent Growth, log10 conc -8.0
  activity at 0.01 µM: 11%
[20]; MCF7, read-out: Percent Growth, log10 conc -9.0
  activity at 0.001 µM: 14%
[20]; MCF7, read-out: Percent Growth, log10 conc -10.0
  activity at 0.0001 µM: 95%
[21]; MDA-MB-435, read-out: Percent Growth, log10 conc -4.0
  activity at 100 µM: -35%
[21]; MDA-MB-435, read-out: Percent Growth, log10 conc -5.0
  activity at 10 µM: -42%
[21]; MDA-MB-435, read-out: Percent Growth, log10 conc -9.0
  activity at 0.001 µM: -46%
[21]; MDA-MB-435, read-out: Percent Growth, log10 conc -10.0
  activity at 0.0001 µM: 66%
[22]; [27]
  activity at 100 µM: 1%
[22]; [28]
  activity at 10 µM: -2%
[22]; [29]
  activity at 0.001 µM: -54%
[22]; [30]
  activity at 0.0001 µM: 75%

## CCCC(=O)NC1CCc2cc(OC)c(OC)c(OC)c2-c2ccc(C(C)=O)cc21 (stereo not shown)
[1]; log10 conc -8.0, 0.01 µM
  Percent Growth: 0% and 7%
[23]; log10 conc -4.0, 100 µM
  Percent Growth: 16%
[23]; log10 conc -5.0, 10 µM
  Percent Growth: 40%
[23]; log10 conc -6.0, 1 µM
  Percent Growth: 34%
[23]; log10 conc -7.0, 0.1 µM
  Percent Growth: 30%
[23]; log10 conc -8.0, 0.01 µM
  Percent Growth: 30%
[24]; log10 conc -4.0, 100 µM
  Percent Growth: -15% and -7%
[24]; log10 conc -5.0, 10 µM
  Percent Growth: -22% and -20%
[24]; log10 conc -6.0, 1 µM
  Percent Growth: -18% and -23%
[24]; log10 conc -7.0, 0.1 µM
  Percent Growth: -18% and -21%
[5]; log10 conc -4.0, 100 µM
  Percent Growth: -54% and -51%
[5]; log10 conc -6.0, 1 µM
  Percent Growth: 21%
[5]; log10 conc -7.0, 0.1 µM
  Percent Growth: 22%
[5]; log10 conc -8.0, 0.01 µM
  Percent Growth: 23%
[25]
  Percent Growth: -3% and -4%
[26]
  Percent Growth: 24%
[8]; log10 conc -5.0, 10 µM
  Percent Growth: 25%
[8]; log10 conc -6.0, 1 µM
  Percent Growth: 17%
[8]; log10 conc -7.0, 0.1 µM
  Percent Growth: 21%
[9]; log10 conc -4.0, 100 µM
  Percent Growth: 3%
[9]; log10 conc -5.0
  Percent Growth: 3%
[9]; log10 conc -6.0, 1 µM
  Percent Growth: -7% and 1%
[9]; log10 conc -8.0, 0.01 µM
  Percent Growth: 3%

From patent US5760092A, “Allocolchinones and uses thereof” (Brandeis University, priority 1996, dated 1998)
